# Experimental data taken from the supplement of paper PMC4967469.
# A lower IC50 marks a more sensitive line; a fit beyond the top or the lowest dose is shown as a bound at that dose. AUC sums up the same curve from the lowest dose to the 256-fold higher top dose: 1 means no effect, lower means more sensitive. Where the top dose is marked as inferred, it was derived from the fitted curves, not read from the paper.
# Compound: N.N.[Cl][Pt][Cl] [Cisplatin]
# Assay: Viability of human cancer cell lines after 72 h of drug (GDSC screen)
# Conditions: top dose inferred
# Experimental: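 Human cancer cell lines in 384-well plates, medium with 10% serum, drug for 72 h over a 256-fold dose range (nine 2-fold or five 4-fold steps up to the top dose). Adherent lines were fixed and stained with the nucleic acid dye Syto60, suspension lines read with resazurin; signal relative to control wells, capped at 0 and 100%. One two-parameter sigmoid per drug and line, fitted in a mixed model over all curves with the slope shared within a line.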
Cell Line,AUC,IC50
"KS-1 (glioma, adherent, top dose 10 µM)",0.905,> 10 µM
"KU812 (chronic myeloid leukaemia, suspension, top dose 10 µM)",0.925,> 10 µM
"KU-19-19 (bladder, adherent, top dose 10 µM)",0.866,8.93 µM
"KURAMOCHI (ovary, adherent, top dose 10 µM)",0.766,4.27 µM
"KY821 (leukaemia, suspension, top dose 10 µM)",0.957,> 10 µM
"KYAE-1 (oesophagus, suspension, top dose 10 µM)",0.945,> 10 µM
"KYM-1 (rhabdomyosarcoma, adherent, top dose 10 µM)",0.796,3.92 µM
"KYSE-50 (oesophagus, adherent, top dose 10 µM)",0.958,> 10 µM
"KYSE-70 (oesophagus, adherent, top dose 10 µM)",0.936,> 10 µM
"KYSE-140 (oesophagus, adherent, top dose 10 µM)",0.686,2.24 µM
"KYSE-150 (oesophagus, adherent, top dose 10 µM)",0.983,> 10 µM
"KYSE-220 (oesophagus, adherent, top dose 10 µM)",0.843,7.67 µM
"KYSE-410 (oesophagus, adherent, top dose 10 µM)",0.908,> 10 µM
"KYSE-450 (oesophagus, adherent, top dose 10 µM)",0.947,> 10 µM
"KYSE-510 (oesophagus, adherent, top dose 10 µM)",0.789,3.62 µM
"KYSE-520 (oesophagus, adherent, top dose 10 µM)",0.908,> 10 µM
"L-363 (myeloma, suspension, top dose 10 µM)",0.927,> 10 µM
"L-428 (Hodgkin lymphoma, suspension, top dose 10 µM)",0.898,9.97 µM
"L-540 (Hodgkin lymphoma, suspension, top dose 10 µM)",0.867,7.43 µM
"LAMA-84 (chronic myeloid leukaemia, suspension, top dose 10 µM)",0.805,5.13 µM

Cell Line,AUC,IC50
"LAN-6 (neuroblastoma, adherent, top dose 10 µM)",0.969,> 10 µM
"LB373-MEL-D (melanoma, adherent, top dose 10 µM)",0.902,> 10 µM
"LB647-SCLC (small cell lung carcinoma, semi-adherent, top dose 6 µM)",0.904,> 6 µM
"LB771-HNC (head and neck, adherent, top dose 10 µM)",0.88,> 10 µM
"LB831-BLC (bladder, adherent, top dose 10 µM)",0.97,> 10 µM
"LB1047-RCC (kidney, adherent, top dose 10 µM)",0.826,7.14 µM
"LB2241-RCC (kidney, adherent, top dose 10 µM)",0.875,> 10 µM
"LB2518-MEL (melanoma, adherent, top dose 10 µM)",0.981,> 10 µM
"LC4-1 (lymphoblastic leukaemia, suspension, top dose 10 µM)",0.933,> 10 µM
"LC-1-sq (lung squamous cell carcinoma, adherent, top dose 10 µM)",0.878,> 10 µM
"LCLC-97TM1 (large cell lung carcinoma, adherent, top dose 10 µM)",0.896,> 10 µM
"LCLC-103H (large cell lung carcinoma, adherent, top dose 10 µM)",0.908,> 10 µM
"LK-2 (lung squamous cell carcinoma, adherent, top dose 10 µM)",0.953,> 10 µM
"LN-18 (glioma, adherent, top dose 10 µM)",0.896,8.13 µM
"LN-229 (glioma, adherent, top dose 10 µM)",0.913,> 10 µM
"LN-405 (glioma, adherent, top dose 10 µM)",0.943,> 10 µM
"LNZTA3WT4 (glioma, adherent, top dose 10 µM)",0.934,> 10 µM
"LOU-NH91 (lung squamous cell carcinoma, adherent, top dose 10 µM)",0.937,> 10 µM
"LOUCY (T-cell lymphoblastic leukaemia, suspension, top dose 10 µM)",0.891,7.89 µM
"LP-1 (myeloma, suspension, top dose 10 µM)",0.99,> 10 µM
